According to the GPR68 mutational scans of Howard et al. (2025):
The least precise scores are not listed. The source holds two more conditions with little spread; they are left out. In variant names, del marks residues removed and ins residues inserted between the two positions. For some assays here: The concentration of ogerin is not given here.

B1: GPR68, Q15743 (parent)
chain: MGNITADNSSMSCTIDHTIHQTLAPVVYVTVLVVGFPANCLSLYFGYLQIKARNELGVYLCNLTVADLFYICSLPFWLQYVLQHDNWSHGDLSCQVCGILLYENIYISVGFLCCISVDRYLAVAHPFRFHQFRTLKAAVGVSVVIWAKELLTSIYFLMHEEVIEDENQHRVCFEHYPIQAWQRAINYYRFLVGFLFPICLLLASYQGILRAVRRSHGTQKSRKDQIQRLVLSTVVIFLACFLPYHVLLLVRSVWEASCDFAKGVFNAYHFSLLLTSFNCVADPVLYCFVSETTHRDLARLRGACLAFLTCSRTGRAREAYPLGAPEASGKSGAQGEEPELLTKLHPAFQTPNSPGSGGFPTGRLA

What was measured:
[1] = variants of: B1; experiment: cAMP reporter score (Enrich2 score, wild type = 0); higher = more signal; HEK293T, FACS bins
[2] = variants of: B1; experiment: surface expression score (Enrich2 score, wild type = 0); higher = more signal; HEK293T, FACS bins

| Variant | cAMP reporter score ([1]; pH 5.5) | cAMP reporter score ([1]; pH 6, modulator: ogerin) | cAMP reporter score ([1]; pH 6.5, modulator: ogerin) | surface expression score [2] | cAMP reporter score ([1]; pH 6) |
| --- | --- | --- | --- | --- | --- |
| G314_R315del | 0.686 | 0.438 | -0.369 | -0.63 | – |
| G314_R315insG | 0.43 | 0.289 | -0.057 | -0.295 | -0.186 |
| G314del | 0.559 | 0.416 | 0.018 | 1.21 | -0.317 |
| R315A | 0.976 | 0.78 | 0.45 | 1.27 | 1.15 |
| R315C | 0.111 | 0.186 | -0.542 | -0.408 | -0.634 |
| R315D | 0.43 | 0.924 | 0.917 | 0.083 | -0.052 |
| R315F | 0.37 | 0.478 | 0.589 | -0.669 | 0.563 |
| R315G | 0.715 | -0.003 | -0.084 | 0.782 | -0.227 |
| R315H | 0.485 | 0.051 | 0.452 | 0.14 | 0.191 |
| R315I | -0.292 | -0.129 | -0.928 | -0.043 | -0.959 |
| R315K | 0.341 | 0.347 | -0.592 | 0.584 | 0.668 |
| R315L | 0.523 | 1.09 | 0.021 | 0.236 | 0.013 |
| R315M | -0.762 | -0.457 | -0.653 | 0.276 | -0.633 |
| R315N | 0.083 | -0.113 | 1.49 | 0.676 | 0.494 |
| R315P | -0.215 | -0.126 | -0.365 | -0.98 | – |
| R315Q | 1.02 | 0.857 | 0.588 | 1.46 | 0.852 |
| R315S | 1.04 | 0.826 | 0.283 | 0.585 | 0.306 |
| R315T | 0.737 | 0.666 | 0.852 | 1.27 | 0.624 |
| R315V | -0.545 | -0.438 | 1.37 | – | 0.291 |
| R315W | -1.33 | -2.01 | -1.56 | -1.38 | -1.18 |
| R315Y | 1.11 | 1.44 | 0.627 | 0.618 | 0.495 |

| Variant | cAMP reporter score ([1]; pH 5.5) | cAMP reporter score ([1]; pH 6, modulator: ogerin) | cAMP reporter score ([1]; pH 6.5, modulator: ogerin) | surface expression score [2] | cAMP reporter score ([1]; pH 6) |
| --- | --- | --- | --- | --- | --- |
| R315_A316del | 0.126 | -0.168 | -0.161 | -0.556 | -1.21 |
| R315del | -0.137 | 1.15 | 0.289 | 0.012 | -1.4 |
| A316_R317del | 0.418 | 0.365 | 0.54 | -0.46 | -0.712 |
| R317_E318del | 1.05 | 1.22 | 1.1 | 0.267 | 1.75 |
| R317_E318insGS | 0.34 | 0.318 | 0.503 | 0.116 | -0.338 |
| R317_E318insGSG | 0.449 | 0.956 | 1.35 | 0.822 | -0.303 |
| R317del | 0.877 | 0.736 | 0.692 | 0.644 | -0.202 |
| E318A | 0.064 | 0.075 | 0.586 | -0.047 | -0.179 |
| E318C | 0.05 | -0.308 | -0.411 | -0.341 | -0.871 |
| E318D | 0.207 | 0.23 | -0.118 | 0.317 | -0.098 |
| E318F | 0.091 | -0.393 | -0.846 | -0.741 | -0.42 |
| E318G | -0.15 | – | -1.28 | -1.26 | – |
| E318H | 0.266 | 0.726 | 0.226 | -0.678 | -0.589 |
| E318I | -0.556 | -0.754 | -0.633 | -1.6 | -0.101 |
| E318K | 1.76 | 1.39 | 1.13 | 0.987 | 1.32 |
| E318L | 0.114 | 0.247 | -0.138 | -0.808 | -1.42 |
| E318M | -0.612 | -0.021 | -0.73 | -1.2 | -0.281 |
| E318N | 0.242 | -0.291 | -0.366 | -0.562 | -0.421 |
| E318P | 1.2 | 0.975 | 1.77 | 0.75 | 3.69 |
| E318Q | -0.002 | 0.557 | 0.332 | 0.726 | -0.739 |
| E318R | 1.21 | 1.26 | 0.894 | 0.193 | -0.346 |

| Variant | cAMP reporter score ([1]; pH 5.5) | cAMP reporter score ([1]; pH 6, modulator: ogerin) | cAMP reporter score ([1]; pH 6.5, modulator: ogerin) | surface expression score [2] | cAMP reporter score ([1]; pH 6) |
| --- | --- | --- | --- | --- | --- |
| E318S | 0.2 | -0.284 | 0.321 | -0.297 | 1.25 |
| E318T | 0.259 | -0.14 | -0.077 | -0.147 | 0.698 |
| E318V | 0.882 | 0.715 | 0.577 | -0.4 | -0.553 |
| E318W | -0.639 | -0.651 | -0.576 | -0.648 | -0.577 |
| E318Y | -0.084 | -0.112 | -0.819 | -0.662 | -0.734 |
| E318_A319insG | -0.011 | 0.455 | -0.083 | 0.613 | -0.162 |
| A319_Y320del | 0.58 | 0.918 | 1.19 | 0.457 | 0.468 |
| A319_Y320insG | 0.686 | 0.338 | 0.515 | 0.22 | -0.211 |
| A319_Y320insGS | 1.1 | 0.884 | 0.894 | 0.514 | 1.13 |
| Y320A | 0.933 | 0.544 | 0.352 | 0.465 | 0.091 |
| Y320C | -0.322 | -0.201 | 0.366 | -0.349 | -0.223 |
| Y320D | 0.278 | 0.696 | -0.104 | 0.668 | -0.688 |
| Y320E | -0.231 | 0.321 | -0.008 | 0.437 | 0.277 |
| Y320F | 1.07 | 1.38 | 0.472 | 0.633 | 0.116 |
| Y320G | -0.411 | -0.663 | – | 1.76 | – |
| Y320H | 0.102 | 0.129 | 0.451 | -0.027 | 0.495 |
| Y320I | 0.544 | 0.834 | 0.203 | 1.48 | 0.787 |
| Y320K | 0.288 | 0.567 | 1.32 | -1.04 | -0.078 |
| Y320L | 0.152 | -0.15 | – | 0.023 | – |
